Measurements taken from PubChem BioAssay AID360 (National Center for Advancing Translational Sciences (NCATS), 2006).
The whole screen tested about 48,000 compounds, of which about 550 (1.1%) were called active. Not shown: some 4% with an inconclusive outcome. Rule as the data show it: active = potency below about 15 µM; inconclusive = mostly about 16 µM to 33 µM; inactive = weaker than that. The list shows a part of the results.

What follows are compounds tested against Lysosomal acid glucosylceramidase (Homo sapiens) (UniProt P04062) (assay: Glucocerebrosidase). Conditions: purified enzyme, resorufin glucoside fluorescence (screen aimed at inhibitors), 20 min.
How it was run: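 Wild-type enzyme at 0.2 nM final in 50mM citric acid/KH2PO4, 10mM sodium taurocholate, 0.01% tween-20, pH 5.9, with resorufin beta-D-glucopyranoside at 30 uM final. Compounds titrated, 20 min at RT, red fluorescence read; AC50 from titration.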
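Also: the screen sought inhibitors.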
Potency is read from the fitted curve at half-maximal effect.

UniProt P04062, sequence (P04062 whole entry, looked up): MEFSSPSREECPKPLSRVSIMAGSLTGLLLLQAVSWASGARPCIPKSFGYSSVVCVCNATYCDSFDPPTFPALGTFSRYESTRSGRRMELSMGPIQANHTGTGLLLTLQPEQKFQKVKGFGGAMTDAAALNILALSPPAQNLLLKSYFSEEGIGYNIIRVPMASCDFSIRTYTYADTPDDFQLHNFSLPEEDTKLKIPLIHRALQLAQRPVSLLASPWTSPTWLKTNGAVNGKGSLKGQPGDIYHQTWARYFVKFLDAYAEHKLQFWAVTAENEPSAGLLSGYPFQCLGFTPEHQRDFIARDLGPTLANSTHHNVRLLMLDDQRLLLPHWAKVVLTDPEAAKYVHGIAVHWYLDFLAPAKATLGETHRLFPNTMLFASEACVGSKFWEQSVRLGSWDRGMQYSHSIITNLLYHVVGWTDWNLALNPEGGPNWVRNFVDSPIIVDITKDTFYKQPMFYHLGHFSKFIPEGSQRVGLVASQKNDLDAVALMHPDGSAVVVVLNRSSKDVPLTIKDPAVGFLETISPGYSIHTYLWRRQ

Potency, inactive:
CCCC(=O)Nc1ccc(C(=O)NCC(=O)OCC)cc1 > 76.9 µM
COc1ccc(N2CCN(CCNS(=O)(=O)c3cccc4nsnc34)CC2)cc1 > 76.9 µM
c1csc(-c2nnc(-c3ccc(N4CCOCC4)cc3)o2)c1 > 76.9 µM
N#Cc1c(/N=C/c2ccco2)sc2c1CCC2 > 76.9 µM
CCOc1ccc(-c2nnc(NC(=O)CCCOc3cccc(C)c3)o2)cc1 > 76.9 µM
CC(C)OC(=O)CSc1nnc(CNc2nc(-c3ccccc3)cs2)n1C > 76.9 µM
CCNC(=O)CSc1nc2ccccc2c(=O)n1OC > 76.9 µM
CCN(CC)S(=O)(=O)N1CCC(C(=O)NC2CCCc3ccccc32)CC1 (stereo not given) > 76.9 µM
CCCCc1cc(=O)oc2c(CN(C)C)c(O)ccc12 > 76.9 µM
CCOc1ccc(S(=O)(=O)NCCC(=O)OCN2C(=O)c3ccccc3C2=O)cc1 > 76.9 µM
CCOC(=O)c1cc2c(ccn2-c2ccc(F)cc2)n1CC(=O)N1CCN(C(=O)c2ccco2)CC1 > 76.9 µM
CCOC(=O)N1CCN(c2c(NCCCN(CC)Cc3ccccc3)c(=O)c2=O)CC1 > 76.9 µM
COc1ccccc1-c1ccc(=O)n(CC(=O)NCc2ccc3c(c2)OCO3)n1 > 76.9 µM
CCN1CCN(Cc2c(O)ccc3c(=O)c(-c4ccccc4OC)coc23)CC1 > 76.9 µM
CCC1CCCCN1Cc1ccc(CNS(=O)(=O)c2ccc3c(c2)oc(=O)n3C)o1 (stereo not given) > 76.9 µM
Cc1cccc(OCc2nnc(SCC(=O)Nc3sc(C)c(C)c3C#N)n2C)c1 > 76.9 µM
O=C(Nc1cc(C(F)(F)F)ccc1N1CCCC1)c1cccnc1 > 76.9 µM
Cc1noc(C)c1COC(=O)Cc1ccc(Cl)cc1 > 76.9 µM
CC(C)c1nnc(SCC(=O)NCc2ccco2)n1C > 76.9 µM
CCN(CC)S(=O)(=O)c1ccc(-c2nnc(SCC(=O)N3CCOCC3)o2)cc1 > 76.9 µM
CC(C)C(c1nnnn1Cc1ccc(F)cc1)N1CCN(Cc2ccc3c(c2)OCO3)CC1 (stereo not given) > 76.9 µM
CCOC(=O)N1CCN(C(=O)CNS(=O)(=O)c2cccs2)CC1 > 76.9 µM
CCSc1nnc(NC(=O)CSc2nc3c(c(=O)n2CC)SC(C)C3)s1 (stereo not given) > 76.9 µM
CSCC[C@H](NC(=O)Nc1ccc(C)cc1)C(=O)O > 76.9 µM
CC1S/C(=C(\C#N)C(=O)NCc2ccco2)N(Cc2ccco2)C1=O (stereo not given) > 76.9 µM
O=S(=O)(NC1CC1)c1ccc(S(=O)(=O)N2CCc3ccccc32)cc1 > 76.9 µM
COc1ccc(-c2nc(CSCC(=O)NCC3CCCO3)c(C)o2)cc1OC (stereo not given) > 76.9 µM
COC(=O)c1ccc(COc2ccc3c4c(c(=O)oc3c2)CCC4)o1 > 76.9 µM
CCC(C)C(=O)Nc1cc(C(=O)OC)cc(C(=O)OC)c1 (stereo not given) > 76.9 µM
Cc1cccc(-c2nc(C#N)c(N3CCCCCC3)o2)c1 > 76.9 µM
COc1ccccc1OCc1ccc(C(=O)NC(C)(C)C)o1 > 76.9 µM
CSc1ccccc1NC(=O)c1ccco1 > 76.9 µM
CCn1c2ccccc2c2cc(NC(=O)COC(=O)Cc3cn4ccsc4n3)ccc21 > 76.9 µM
C=C(C)CSc1nc2nc(C)cc(C)n2n1 > 76.9 µM
CCn1c(=O)n(CC)c2cc(S(=O)(=O)NCCOc3ccccc3)c(C)cc21 > 76.9 µM
CS(=O)(=O)N(CC(=O)NCC1CCCO1)Cc1ccc(Cl)cc1 (stereo not given) > 76.9 µM
O=C(CSc1nnc(-c2ccc(F)cc2)o1)c1ccc2c(c1)OCCO2 > 76.9 µM
Oc1ccc(-c2nc3ncccn3c2Nc2ccc3c(c2)OCO3)cc1 > 76.9 µM
c1ccc(-c2ncnc3nc4n(c23)CCC4)cc1 > 76.9 µM
COc1ccccc1C1/C(=C(\O)c2c(C)nc3c(C)cccn23)C(=O)C(=O)N1CCCN(C)C (stereo not given) > 76.9 µM
COc1cccc(NC(=O)CSCc2n[nH]c(=O)[nH]2)c1 > 76.9 µM
CC(C)(C)NC(=O)C(Cc1ccccc1)NS(=O)(=O)c1ccc2c(c1)CCC(=O)N2 (stereo not given)
CCN(c1ccccc1)S(=O)(=O)c1ccc(F)c(C(=O)O)c1 > 76.9 µM
CCOc1ccc(C(C)(C)C)cc1S(=O)(=O)N1CC(C)OC(C)C1 (stereo not given) > 76.9 µM
CC(=O)NCCc1ccc(S(=O)(=O)N2CCOCC2)cc1 > 76.9 µM
Clc1ccc2c(N3CCCC3)ccnc2c1 > 76.9 µM
O=C1c2ccccc2N2C(=O)c3ccccc3C2N1O (stereo not given) > 76.9 µM
O=C(C1CCCCC1)N(Cc1nc2sc3c(c2c(=O)[nH]1)CCCC3)Cc1cccs1 > 76.9 µM
Nc1ccc(CCS(N)(=O)=O)cc1 > 76.9 µM
CCOC(=O)c1sc(=S)n(-c2cccc(OC)c2)c1N > 76.9 µM
CC(C)(C#N)Nn1cnnc1 > 76.9 µM
Cc1ccc(CNC(=O)c2coc(=O)c3ccccc23)o1 > 76.9 µM
COc1ccccc1C(=O)Nc1ccc(N2CCN(S(C)(=O)=O)CC2)cc1 > 76.9 µM
O=C(O)C1C2CCC(C2)C1C(=O)Nc1nc2ccccc2s1 (stereo not given) > 76.9 µM
COc1cccc(-c2nc(-c3ccccc3)no2)c1
O=C(CN1CCN(S(=O)(=O)c2ccccc2)CC1)Nc1ccc2c(c1)OCO2 > 76.9 µM
O=c1c2cnn(-c3ccccc3)c2ncn1Cc1ccccc1 > 76.9 µM
CCn1cc(NC(=O)Nc2ccc(OC)c(OC)c2)c(C(N)=O)n1 > 76.9 µM
COc1cc(Cl)ccc1S(=O)(=O)n1nc(C)cc1C > 76.9 µM
CSc1nsc(SCC(=O)Nc2ccc3c(c2)OCCO3)n1 > 76.9 µM
Cc1nn(-c2ccccc2)c(=S)n1-c1ccccc1 > 76.9 µM
CCCSc1nnc(-c2cccc(S(=O)(=O)N(C)C)c2)n1-c1cc(OC)ccc1OC
COc1c(F)c(F)c(C(=O)Nc2ccc3oc(-c4ccncc4)nc3c2)c(F)c1F > 76.9 µM
Cc1cc(C)n2cc(CSc3nc4cc(Cl)ccc4o3)nc2n1 > 76.9 µM
Cc1cc(C)c2[nH]c(=O)c(C(c3nnnn3C(C)(C)C)N3CCN(C(=O)c4ccco4)CC3)cc2c1 (stereo not given) > 76.9 µM
CCOC(=O)c1cnc(-n2nc(C)cc2C)nc1N1CC(C)OC(C)C1 (stereo not given) > 76.9 µM
O=C(COc1ccc(S(=O)(=O)N2CCOCC2)cc1)NC1CCCC1 > 76.9 µM
CCOC(=O)c1[nH]c(COC(=O)C2CC(=O)N(Cc3ccccc3)C2)c(C(=O)OCC)c1C (stereo not given) > 76.9 µM
COc1cccc(-c2csc(N3CCN(C(=O)Nc4ccccc4OC)CC3)n2)c1 > 76.9 µM
CC1CCN(C(=O)CSc2nnc(-c3cccnc3)n2C2CCCCC2)CC1 > 76.9 µM
COc1ccccc1C(=O)N1CCC(C(=O)c2ccc(F)cc2)CC1 > 76.9 µM
CCCn1nc(C(=O)Nc2cccc(C(=O)OC)c2)c2ccccc2c1=O > 76.9 µM
CCC(NS(=O)(=O)c1ccc(C)cc1)C(=O)Nc1ccc(NC(C)=O)cc1 (stereo not given) > 76.9 µM
COc1ccc(OC)c(NS(=O)(=O)c2ccc3c(c2)CCC(=O)N3)c1 > 76.9 µM
CCOC(=O)c1ccccc1NC(=O)Cn1cnc2c(cnn2-c2ccc(OC)cc2)c1=O > 76.9 µM
Cc1ccc(F)cc1NC(=O)c1ccc2c(c1)OCO2 > 76.9 µM
O=C(NCC1CCCO1)c1ccc(C(=O)NCC2CCCO2)cc1 (stereo not given) > 76.9 µM
COc1ccccc1NS(=O)(=O)c1ccc(Cl)cc1 > 76.9 µM
O=C(C1CCN(S(=O)(=O)c2cccc3nsnc23)CC1)N1CCc2ccccc21 > 76.9 µM
O=C(C1CC1)N1CCc2cc(S(=O)(=O)NCC3COc4ccccc4O3)ccc21 (stereo not given) > 76.9 µM
COc1ccccc1CN1C(=S)SC(C)(C)C1NO (stereo not given) > 76.9 µM
CCCOc1cccc(C2C(C(=O)c3ccco3)=C(O)C(=O)N2CCN(CC)CC)c1 (stereo not given) > 76.9 µM
CC(C)OC(=O)CSc1nnc(Cc2ccccc2)n1C > 76.9 µM
Cc1cc(C)nc(SCc2nnc(SCC(=O)Nc3ccccc3C)n2Cc2ccco2)n1 > 76.9 µM
O=c1cc(N2CCc3ccccc32)[nH]c(=O)n1Cc1ccc(F)cc1 > 76.9 µM
COC(=O)Nc1nnc(CC(=O)Nc2ccccc2C)s1 > 76.9 µM
O=C(CCCSc1nc2ccccc2s1)NCc1ccco1 > 76.9 µM
COC(=O)c1ccc2c(=O)n(CCCCCC(=O)N3CCN(c4ccccc4)CC3)c(=O)[nH]c2c1 > 76.9 µM
COC(=O)CCN(C1CCCCC1)S(=O)(=O)c1ccc(S(=O)(=O)N2CCCCC2)cc1 > 76.9 µM
CCOC(=O)N1CCN(C(=O)Nc2ccc3nc(C)sc3c2)CC1 > 76.9 µM
